Laboratory results: article PMC5726399 (Neuropharmacology, 2017)

Assays:
[1] = test system: NMDA receptor-induced substance P release; assay: NMDA-induced NK1R internalization in slices preincubated with BDNF; design: species or system rat; details: 20 ng/ml BDNF; 1 μM DAMGO, 100 μM SQ22536 or 10 μM KT5720, 60 min
[2] = test system: NMDA receptor-induced substance P release; assay: NMDA-induced NK1R internalization in slices preincubated with BVT948; design: species or system rat; details: 10 μM BVT948; 1 μM DAMGO, 100 μM SQ22536 or 10 μM KT5720, 60 min

| Structure (SMILES) | inhibition of NMDA-induced NK1R internalization in presence of BDNF [1] | inhibition of NMDA-induced NK1R internalization in presence of BVT948 [2] |
| --- | --- | --- |
| CCCCCCOC(=O)[C@]1(O)C[C@@H]2O[C@@]1(C)n1c3ccccc3c3c4c(c5c6ccccc6n2c5c31)C(=O)NC4 [KT5720, (9R,10S,12S)-2,3,9,10,11,12-Hexahydro-10-hydroxy-9-methyl-1-oxo-9,12-epoxy-1H-diindolo[1,2,3-fg:3′,2′,1′-kl]pyrrolo[3,4-i][1,6]benzodiazocine-10-carboxylic acid, hexyl ester] | did not preclude the inhibition | still occurred |
| Nc1ncnc2c1ncn2C1CCCO1 (stereo not shown) [SQ22536, 9-(Tetrahydro-2-furanyl)-9H-purin-6-amine] | did not preclude the inhibition | still occurred |
